# Measured values taken from PubChem BioAssay AID485344 (National Center for Advancing Translational Sciences (NCATS), 2010).
# Screen size: about 340,000 compounds; about 6,900 (2%) were called active. No stated cut-off is given here; in the data, active means inhibition above about 30%; inactive means below that, where a call was filed. The list shows a part of the results, in another mix than the full data. The source gives no active or inactive call for entries shown without one.
# Biological target: D(2) dopamine receptor (Homo sapiens) (UniProt P14416)
# UniProt P14416, sequence (P14416 whole entry, looked up): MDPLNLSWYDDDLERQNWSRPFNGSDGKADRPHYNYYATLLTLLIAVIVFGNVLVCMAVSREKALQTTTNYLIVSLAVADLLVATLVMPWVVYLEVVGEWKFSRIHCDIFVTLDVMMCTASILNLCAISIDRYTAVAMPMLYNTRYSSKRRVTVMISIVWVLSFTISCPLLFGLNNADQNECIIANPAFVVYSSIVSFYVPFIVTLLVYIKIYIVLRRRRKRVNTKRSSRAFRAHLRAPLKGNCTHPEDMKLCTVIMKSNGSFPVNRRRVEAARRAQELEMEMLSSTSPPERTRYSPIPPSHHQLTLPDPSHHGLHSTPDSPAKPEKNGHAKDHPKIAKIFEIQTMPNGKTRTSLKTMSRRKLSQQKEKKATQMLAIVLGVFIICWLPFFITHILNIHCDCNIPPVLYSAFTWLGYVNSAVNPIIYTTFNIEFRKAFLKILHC
# Assay: HTS Assay for Allosteric Antagonists of the Human D2 Dopamine Receptor: Primary Screen for Antagonists; further: 0% is about no effect
# Details: HEK293 TREx D2 cells, calcium flux, dopamine EC80; at 10 µM; stronger effect = higher value
# How it was run: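 Overnight-induced (tetracycline, 30 C) HEK293 T-REx cells carrying force-coupled D2 receive a no-wash calcium dye, then compound, then EC80 dopamine at 180 s; signals are read kinetically throughout.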
row,Compound,inhibition
1,FC(F)(F)c1cccc(OCCN2CCN(Cc3ccccc3)CC2)c1,active: 82%
2,CCCN1Cc2cccc(C(=O)Nc3ccccc3F)c2C1=O,14.5%
3,CCCC(=O)Nc1ccc2nc(SCCOc3ccccc3)sc2c1,11.8%
4,COc1ccc(C2=Nc3ccc(C)cc3C(c3ccccc3)N2CC(=O)NN)cc1 (stereo not given),active: 108%
5,Cc1cccc(NC(=O)C(=O)NCC(c2cccnc2)N2CCN(Cc3ccccc3)CC2)c1 (stereo not given),19.1%
6,Cn1c(C(=O)NCCc2ccccc2)cc2cc(S(=O)(=O)N3CCCCC3)ccc21,2.25%
7,CCOc1ccc(NCc2cccn2-c2nnc(N3CCC(C(=O)NCCc4ccc(OCC)c(OCC)c4)CC3)s2)cc1,-1.89%
8,CC1CN(C(=O)Nc2ccc(C(=O)NCCc3ccc(Cl)cc3)cc2)c2ccccc2S1 (stereo not given),5.54%
9,COCCn1c(C)cc(O)c(C(c2ccc(OC)cc2)N2CCCCC2)c1=O (stereo not given),-3.2%
10,Cc1ccc(NC(=O)CSCC#N)cc1,active: 87.4%
11,COc1ccc(S(=O)(=O)N2CCN(C(=O)c3cc(-c4ccc(Br)cc4)n[nH]3)CC2)cc1OC,-12.5%
12,CCOc1ccccc1NC(=O)CSc1nnc2c(CC)c(C)nc(N)n12,active: 35.2%
13,Cc1cccc(C(=O)NCc2nnc(SCC(=O)Nc3ccccc3F)n2-c2ccccc2)c1,-10.5%
14,CCc1cccc(-n2nnc(-c3nc(-c4ccc5c(c4)OCO5)no3)c2C)c1,2.41%
15,CCOC(=O)c1cc(-c2ccc(OC)cc2)n(CCC(=O)NC2CCC(C)CC2)c1C (stereo not given),13.5%
16,CCOc1ccc(-c2n[nH]c3c2C(c2cccs2)N(c2ccc(Br)cc2)C3=O)cc1 (stereo not given),4.18%
17,COc1ccc(NC(=O)CSc2nc(-c3ccccc3)c3ccccc3n2)cc1,-9.11%
18,COc1ccc(N2CCN(C(=O)Nc3ccc(Cl)cc3)CC2)cc1,8.71%
19,CCN1CCN(C(c2cccc(OC)c2)c2c(O)cc(C)n(Cc3ccco3)c2=O)CC1 (stereo not given),11.7%
20,S=C(Nc1ccc(Br)cc1Cl)NC1CCN(Cc2ccccc2)CC1,active: 70.2%
21,O=C(Nc1ccccc1C(F)(F)F)N1Cc2ccccc2Oc2ncccc21,-3.98%
22,COc1cccc(C2C=C(c3ccc(C)cc3)Nc3c(C(=O)Nc4ccc(F)cc4)cnn32)c1OC (stereo not given),14.5%
23,CCOc1ccc(NC(=O)CSc2oc(-c3ccco3)nc2S(=O)(=O)c2ccc(Cl)cc2)cc1,16.2%
24,CC(CCc1ccccc1)NC(=O)Cn1ncc2c3ccccc3n(Cc3cccc(Cl)c3)c2c1=O (stereo not given),13.9%

row,Compound,inhibition
1,CC(NC(=O)c1ccc(Cn2c(SCc3ccccc3)nc3cccnc32)cc1)c1ccccc1 (stereo not given),0.473%
2,CCOc1ccc(N(CC(=O)NCc2ccc(C)cc2)S(=O)(=O)c2c(C)[nH]c(=O)[nH]c2=O)cc1,18.1%
3,COc1ccccc1Nc1nn2c(=O)c3ccc(C(=O)NC4CCCCC4)cc3nc2s1,-3.79%
4,Cc1cc(Cl)ccc1OCC(=O)NNC(=O)CCOc1ccccc1,active: 31.1%
5,CCOC(=O)N1CCc2c(sc(NCc3ccc(N(C)C)cc3)c2C(=O)Nc2ccccc2OCC)C1,-6.51%
6,Brc1ccc(-c2csc(-c3nc(-c4ccc(Br)s4)cs3)n2)cc1,5.84%
7,CCCS(=O)(=O)NCCc1sc2nc(-c3ccc(Cl)cc3)nn2c1C,-2.19%
8,Cc1cc(C(=O)Nc2ccc(Cl)cc2)c2c(C)nn(-c3ccccc3)c2n1,16.3%
9,CCOC(=O)c1c(NC(=O)c2cc(=O)c3c(C)cc(C)cc3o2)sc(C)c1C,-1.36%
10,COc1cccc(NC(=O)CN2C(=O)COc3ccc(S(=O)(=O)N4CCOCC4)cc32)c1,6.68%
11,Cc1[nH]c2ccccc2c1C1(O)C(=O)N(Cc2ccccc2)c2ccc(Br)cc21 (stereo not given),-27.5%
12,COc1ccccc1CNc1ncnc2onc(-c3ccc(Cl)cc3)c12,1.38%
13,CN(c1nnc(NC(=O)Nc2ccc(Br)cc2)s1)C1CCCCC1,14.4%
14,Cc1ccc(NC(=O)Nc2csc3c2CCCC3)c(C)c1,3.54%
15,CNC(=O)C1CCC(Cn2c(=O)c3sccc3n(CC(=O)Nc3ccc(C)cc3C)c2=O)CC1 (stereo not given),6.18%
16,Cc1cccc(NC(=O)CSc2nc(=O)n(CCN3CCOCC3)c3c2CCC3)c1,14.4%
17,O=C(NC1CCN(Cc2ccccc2)CC1)C(NS(=O)(=O)c1cccc2nsnc12)c1ccccc1 (stereo not given),active: 34.5%
18,O=C(CN1C(=O)COc2ccc(S(=O)(=O)NC3CCCC3)cc21)Nc1ccc(F)c(Cl)c1,7.79%
19,O=C(NCCn1cc(SCc2ccc(C(F)(F)F)cc2)c2ccccc21)c1cccs1,23.7%
20,COc1ccc(-n2nc3c(N4CCCC(C(=O)NCc5ccccc5C)C4)nnc(C)c3c2C)cc1 (stereo not given),-23.2%
21,CC(=O)c1cccc(NC(=O)c2ccc3ccccc3c2)c1,active: 31.4%
22,CSc1ccc(CCNC(=O)c2ccc3c(c2)nc2n3CCC(C)C2)cc1 (stereo not given),6.68%
23,CCOCCc1nn2c(=O)cc(COC(=O)c3ccccc3NC(=O)c3cccs3)nc2s1,2.72%
24,CCc1ccccc1NC(=O)N1CC(CC)Oc2ccc(Cl)cc21 (stereo not given),-12.1%

row,Compound,inhibition
1,O=C(NC1CC(=O)N(c2ccccc2)C1)c1cccs1 (stereo not given),-11.8%
2,Cc1cccc(N2CCN(C(=O)CCNS(=O)(=O)c3ccc4c(c3)CCN4C(=O)C3CC3)CC2C)c1 (stereo not given),9.96%
3,Cc1cccc(C(=O)Nc2nc3c(s2)CCCC3)c1,9.56%
4,CCOC(=O)N1CCc2c(sc3c2c(=O)n(CCc2ccccc2)c(=O)n3Cc2ccc(C)cc2C)C1,-14.8%
5,c1ccc(CNc2ncnc3[nH]ncc23)cc1,7.43%
6,COc1ccc(-c2nc(CCNC(=O)Cc3ccc(F)cc3)cs2)cc1,12.9%
7,Cc1ccc(CN(Cc2ccco2)C(=O)c2ccccc2Cl)o1,0.226%
8,CC(=O)c1ccc(NC(=O)c2cn(C)c(=O)c3ccccc23)cc1,-12%
9,O=C(C1CCCN(S(=O)(=O)c2cccs2)C1)N1CCN(c2ccccc2F)CC1 (stereo not given),-25.9%
10,CN1C(=O)c2ccccc2Sc2ccc(NC(=O)NCc3ccccc3Br)cc21,13.6%
11,Cc1ccc(CN(Cc2cccn2-c2nnc(N3CCCC3=O)s2)C(=O)Nc2cc(C)cc(C)c2)cc1,0.364%
12,Cc1nc2sc(C)c(C)n2c(=O)c1S(=O)(=O)NCCc1ccc(Cl)cc1,7.13%
13,COc1ccc(-c2nc3c(c(SCC(=O)Nc4cc(C)cc(C)c4)n2)Cc2c(CO)cnc(C)c2O3)cc1,18.1%
14,COc1cccc(CN2C(=O)C3(SCC(=O)N3c3ccc(F)cc3)c3ccccc32)c1 (stereo not given),4.74%
15,Cc1ccc(Cn2c(C)c(CNCc3ccccc3F)c(C(=O)O)c2C)cc1,5.59%
16,CCc1ccccc1N(C)C(=O)c1cc2c(s1)-c1c(C)cccc1OC2,-2.05%
17,O=C(C1=C[C@@H](c2coc3ccccc3c2=O)C[C@@H](OCCCCO)O1)N1CCOCC1,active: 62.1%
18,COC(=O)c1c(NC(=O)CCCOc2cccc(C)c2)sc2c1CCC(C)C2 (stereo not given),-1.63%
19,O=C(Cn1ncc2c3ccccc3n(Cc3ccccc3)c2c1=O)NCc1ccccc1,-2.58%
20,CC(C)NS(=O)(=O)c1ccc(OCC(=O)N2CCN(c3cccc(Cl)c3)CC2)cc1,-4.63%
21,CCOC(=O)c1ccc(N2C(=O)c3n[nH]c(-c4ccco4)c3C2c2cccc(F)c2)cc1 (stereo not given),23.8%
22,Cc1ccc(NC(=O)CSc2nc3ccc(NC(=O)c4cccc(Cl)c4)cc3s2)c(C)c1,-15.6%
23,COc1ccccc1C(=O)Nc1ccc(-c2nc3cc(C)cc(C)c3o2)cc1,8.44%
24,O=C(C1COc2cc(S(=O)(=O)Nc3ccc(Cl)cc3)ccc2O1)N1CCCC1 (stereo not given),19.3%

row,Compound,inhibition
1,Cc1cc(=O)nc2c3ccccc3n(C(C)C(=O)Nc3c(F)c(F)c(F)c(F)c3F)n12 (stereo not given),active: 44.9%
2,CC(C)(C)OC(=O)N1CCC(c2c(C(=O)O)cnn2-c2ccc(F)cc2F)CC1,-5.01%
3,O=C(CN1C(=O)COc2ccc(S(=O)(=O)N3CCCCCC3)cc21)N1CCN(c2cccc(Cl)c2)CC1,18.8%
4,CCC(=O)N1CCc2cc(S(=O)(=O)NC(Cc3ccccc3)C(=O)Nc3ccc(Cl)cc3)ccc21 (stereo not given),13%
5,O=C(CSc1nc(-c2ccccc2)[nH]c1-c1ccc(F)cc1)NC1CCCC1,-10.5%
6,COc1ccccc1C(=O)N1CCC(c2c[nH]c3ccccc23)(c2c[nH]c3ccccc23)CC1,-0.173%
7,CC(C)c1ccc(S(=O)(=O)Nc2cc3c(cc2NCc2ccccc2)n(C)c(=O)n3C)cc1,9.12%
8,COc1ccc(CCNC(=O)c2cc3cccc4c3n2CC(C)S4)c(OC)c1OC (stereo not given),13%
9,CCCC(=O)Nc1c(C(=O)N2CCN(c3ccccc3)CC2)oc2ccccc12,14.4%
10,CCc1ccccc1NC(=O)C1=CC(c2ccc3c(c2)OCO3)=NS(=O)(=O)N1C,19.1%
11,COc1ccccc1C(=O)CC1(O)C(=O)N(CC(N)=O)c2ccccc21 (stereo not given),-3.22%
12,CC(C)(C)c1ccc(C(=O)Nc2ccc3nc(SCC(=O)N4CCCC4)sc3c2)cc1,-8.22%
13,CCOc1ccccc1NC(=O)Cn1c(=O)n(Cc2ccco2)c(=O)c2cccnc21,7.87%
14,COc1ccc(-c2cc(C(=O)Oc3ccc(Cl)cc3)c3ccccc3n2)cc1,3.04%
15,C=CCC(=O)N(CC)CC1CCCN(CCc2cccc(F)c2)C1 (stereo not given),active: 49.5%
16,Cc1ccc(Nc2cc(-c3ccccc3)nc3ncnn23)cc1,active: 33.5%
17,CCCCn1cnc2cc(NC(=O)c3cc(OC)c(OC)c(OC)c3)ccc21,-2.79%
18,Cc1cc(C)cc(N(CC(=O)Nc2ccc(C(F)(F)F)cc2)S(=O)(=O)c2c(C)[nH]c(=O)[nH]c2=O)c1,1.68%
19,Cc1ccc(OCCSc2nc3ccccc3n2CCC(=O)O)cc1C,8.33%
20,CCOc1ccc(NC(=O)NC(CC)Cn2nnc3ccccc3c2=O)cc1 (stereo not given),16.8%
21,COc1ccc(/C=C(\NC(=O)c2ccccc2)C(=O)NC2CCCCC2)cc1,-2.94%
22,CCOC(=O)C1(CC2CCCCO2)CCN(Cc2ccc(OC)cc2F)CC1 (stereo not given),active: 60.9%
23,O=C(CSc1ncc(S(=O)(=O)c2ccc(Br)cc2)c(=O)[nH]1)NCc1ccccc1Cl,3.25%
